Results on 27 compounds are retold here after article PMC6919601, “Identification of Plasmodium dipeptidyl aminopeptidase allosteric inhibitors by high throughput screening” (PLoS ONE, 2019).

Hit rate of the full screen: of about 110,000 compounds, about 230 (0.21%) showed an effect of 50% or more. This is one part of the list.
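Further: 30 min substrate incubation versus DMSO and 10 µM JCP410 controls.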

The target of this assay is DPAP1 (Plasmodium falciparum, UniProt Q8IIJ9). Nature of the assay: primary screen, percent inhibition; read by cleavage of a fluorogenic dipeptide substrate; higher = more effect of the substance. The arrangement: species or system P. falciparum D10 trophozoite lysates; single well.
Chain of DPAP1 (Q8IIJ9 whole entry, looked up): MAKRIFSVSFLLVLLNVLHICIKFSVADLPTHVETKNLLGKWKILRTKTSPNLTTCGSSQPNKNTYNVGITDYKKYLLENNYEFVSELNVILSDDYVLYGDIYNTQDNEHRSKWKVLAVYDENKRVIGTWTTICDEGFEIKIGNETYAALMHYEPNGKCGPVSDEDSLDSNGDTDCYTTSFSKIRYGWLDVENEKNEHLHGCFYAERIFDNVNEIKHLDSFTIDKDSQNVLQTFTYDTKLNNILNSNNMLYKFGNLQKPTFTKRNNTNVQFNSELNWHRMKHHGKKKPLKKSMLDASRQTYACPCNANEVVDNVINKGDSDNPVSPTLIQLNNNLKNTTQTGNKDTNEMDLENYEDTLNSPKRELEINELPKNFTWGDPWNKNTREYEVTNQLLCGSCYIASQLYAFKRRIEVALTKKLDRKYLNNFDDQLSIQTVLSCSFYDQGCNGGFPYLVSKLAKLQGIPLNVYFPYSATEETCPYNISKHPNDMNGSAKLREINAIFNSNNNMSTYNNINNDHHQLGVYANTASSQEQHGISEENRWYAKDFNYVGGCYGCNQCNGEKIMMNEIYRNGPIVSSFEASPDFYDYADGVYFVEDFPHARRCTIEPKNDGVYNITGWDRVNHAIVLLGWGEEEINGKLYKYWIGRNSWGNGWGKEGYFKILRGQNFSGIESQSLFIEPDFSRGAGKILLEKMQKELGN
For the compound `CCOC(=O)N1CCC(N2CCCC(C(=O)N3CCCC3)C2)CC1` (stereo not drawn), the “% Inhibition @ 10 uM” value is 2.25%.
Take `COCCNC(=O)Cn1nc(-c2ccc(Cl)cc2)c2ccccc2c1=O`: the “% Inhibition @ 10 uM” value is given as -3.96%.
Regarding `CCN(CC)CCCNC(=O)C1CCN(c2ncnc3c2sc2cccc(F)c23)CC1`, the “% Inhibition @ 10 uM” value is listed as -2.37%.
As for `CC1CCN(C(=O)CCc2nnc3n(Cc4ccc(Cl)cc4)c(=O)c4ccccc4n23)CC1`, the “% Inhibition @ 10 uM” value was 4.16%.
For the compound `CNC(=O)Cn1ncc2c3ccccc3n(Cc3cc(C)ccc3C)c2c1=O`, the “% Inhibition @ 10 uM” value turned out to be 1.8%.
The figure for `COc1ccc(NC(=O)c2c(OC)cccc2OC)c(OC)c1` is 2.41%; for `COc1cccc(CCNC2CC(=O)N(c3ccccc3)C2=O)c1` (stereo not drawn) it is -5.1%.
The figure for `C=CCOC(=O)c1sc(N2C(=O)c3oc4ccccc4c(=O)c3C2c2cccc(OC)c2)nc1C` (stereo not drawn) is 2.16%; for `Cc1nn(C(C)C(=O)N2CCC(C)CC2)c(=O)c2cc3sccc3n12` (stereo not drawn) it is -5.19%.
As to `CC(C)c1ccc(N(CC(=O)Nc2ccccc2Cl)S(C)(=O)=O)cc1`, the “% Inhibition @ 10 uM” value worked out at 0.00477%.
The figure for `Cc1ccn2c(/C=N\NC(N)=S)c(-c3ccc(Cl)cc3)cc2c1` is 0.131%.
Take `Cc1cc(C(=O)O)ccc1-n1c(C)cc(C=C2C(=O)NC(=O)NC2=O)c1C`: the “% Inhibition @ 10 uM” value was 0.146%.
The figure for `Cc1sc(NC(=O)c2ccccc2)c(C(c2ccccn2)N2CCN(C)CC2)c1C` (stereo not drawn) is 2.64%.
The figure for `Cc1ccc2oc(=O)c3cc(C(=O)N4CCCCC4C)sc3c2c1` (stereo not drawn) is 0.809%.
The figure for `CN1CCC(NCc2cccc(F)c2)CC1` is 0.472%.
In the case of `CCOc1ccc(C(=O)NCC(=O)n2nc(C)cc2C)cc1`, the “% Inhibition @ 10 uM” value was determined as 12%.
Turning to `Cc1c2cnn(CC(=O)NC(C)c3ccccc3)c(=O)c2c(C)n1Cc1cccc(Cl)c1` (stereo not drawn), the “% Inhibition @ 10 uM” value is reported as 2.84%.
The figure for `Cc1nc2cc(C(=O)N3CCC4(CC3)OCCO4)ccc2n1-c1ccc(Br)cc1` is -2.17%.
The figure for `CCOc1cc2sc(N3CCC(C(=O)NCCCN4CCCC4)CC3)nc2cc1Br` is 23.9%.
The figure for `O=C(O)/C=C/C(=O)NCC1CCC(C(=O)O)CC1` (stereo not drawn) is 0.962%; for `COc1ccc(C2(C)CC(C)(C)N(C(C)=O)c3ccccc32)cc1` (stereo not drawn) it is -2.28%; for `O=C1CC(N2CCCCCC2)C(=O)N1c1cccc2ccccc12` (stereo not drawn) it is 0.189%.
In the case of `CC1=Nc2ccccc2S/C1=C(/O)OC(C)C`, the “% Inhibition @ 10 uM” value is given as -0.436%.
The figure for `Cc1ccc(S(=O)(=O)Cc2ccc(C(=O)N3CCC4(CC3)OCCO4)o2)cc1` is -1.28%; for `COc1ccccc1N1CCN(C(=O)c2ccc3c(c2)OCO3)CC1` it is -5.34%; for `CCOc1ccc2ncc(S(=O)(=O)c3ccc(Cl)cc3)c(N3CCCC3)c2c1` it is 9.45%.
The figure for `Cc1cc(Cl)ccc1NC(=O)CN(c1ccc(F)cc1)S(=O)(=O)c1ccc2c(c1)OCCO2` is 1.1%.
